# Experimental data published in the supplement of paper PMC8728848.
# The other results are listed elsewhere or left out.
# B1: LCA (Lens culinaris), P02870 (protein)
# chain: MASLQTQMISFYLIFLSILLTTIFFFKVNSTETTSFSITKFSPDQKNLIFQGDGYTTKGKLTLTKAVKSTVGRALYSTPIHIWDRDTGNVANFVTSFTFVIDAPSSYNVADEFTFFIAPVDTKPQTGGGYLGVFNSKEYDKTSQTVAVEFDTFYNAAWDPSNKERHIGIDVNSIKSVNTKSWNLQNGERANVVIAFNAATNVLTVTLTYPNSLEEENVTSYTLNEVVPLKDVVPEWVRIGFSATTGAEFAAHEVHSWSFHSELGGTSSSKQAADA
# What was measured:
# Assay in all cases: glycan array binding signal (z-score within array); higher = stronger binding
# Details in all cases: glycan notation: IUPAC condensed, linker removed
# Gal(b1-4)Glc6S = target: Gal(b1-4)Glc6S
# Outline: (§1)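 Glycan array data were curated from 3228 arrays in the Consortium for Functional Glycomics database and kept only where the protein sequence was available. Glycan names were converted to IUPAC-condensed notation, and columns mapping to the same glycan were averaged. The binding signal is a within-array Z-score, averaged across arrays of the same protein sequence at different concentrations or buffers and across linkers. Negative Z-scores can be read as non-binding.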
# Gal(b1-4)GlcNAc = target: Gal(b1-4)GlcNAc
# Outline: as §1
# [1] = target: Gal(b1-4)GlcNAc(a1-6)Gal(b1-4)GlcNAc
# Outline: as §1
# Gal(b1-4)GlcNAc(b1-2)Man = target: Gal(b1-4)GlcNAc(b1-2)Man
# Outline: as §1
# [2] = target: Gal(b1-4)GlcNAc(b1-2)Man(a1-3)Man(b1-4)GlcNAc(b1-4)GlcNAc
# Outline: as §1
# [3] = target: Gal(b1-4)GlcNAc(b1-2)Man(a1-3)[Gal(b1-4)GlcNAc(b1-2)Man(a1-6)]Man(b1-4)GlcNAc(b1-4)GlcNAc
# Outline: as §1
# [4] = target: Gal(b1-4)GlcNAc(b1-2)Man(a1-3)[Gal(b1-4)GlcNAc(b1-2)Man(a1-6)]Man(b1-4)GlcNAc(b1-4)[Fuc(a1-6)]GlcNAc
# Outline: as §1
# [5] = target: Gal(b1-4)GlcNAc(b1-2)Man(a1-3)[Gal(b1-4)GlcNAc(b1-2)Man(a1-6)][Gal(b1-4)GlcNAc(b1-4)]Man(b1-4)GlcNAc(b1-4)[Fuc(a1-6)]GlcNAc
# Outline: as §1
# [6] = target: Gal(b1-4)GlcNAc(b1-2)Man(a1-3)[Gal(b1-4)GlcNAc(b1-2)Man(a1-6)][GlcNAc(b1-4)]Man(b1-4)GlcNAc(b1-4)[Fuc(a1-6)]GlcNAc
# Outline: as §1
# [7] = target: Gal(b1-4)GlcNAc(b1-2)Man(a1-3)[GlcNAc(b1-2)Man(a1-6)]Man(b1-4)GlcNAc(b1-4)GlcNAc
# Outline: as §1
# [8] = target: Gal(b1-4)GlcNAc(b1-2)Man(a1-3)[GlcNAc(b1-4)][Gal(b1-4)GlcNAc(b1-2)Man(a1-6)]Man(b1-4)GlcNAc(b1-4)GlcNAc
# Outline: as §1
# [9] = target: Gal(b1-4)GlcNAc(b1-2)Man(a1-3)[Man(a1-6)]Man(b1-4)GlcNAc(b1-4)GlcNAc
# Outline: as §1
# [10] = target: Gal(b1-4)GlcNAc(b1-2)Man(a1-6)Man(b1-4)GlcNAc(b1-4)GlcNAc
# Outline: as §1
# [11] = target: Gal(b1-4)GlcNAc(b1-2)Man(a1-6)[GlcNAc(b1-2)Man(a1-3)]Man(b1-4)GlcNAc(b1-4)GlcNAc
# Outline: as §1
# [12] = target: Gal(b1-4)GlcNAc(b1-2)Man(a1-6)[Man(a1-3)]Man(b1-4)GlcNAc(b1-4)GlcNAc
# Outline: as §1
# [13] = target: Gal(b1-4)GlcNAc(b1-2)[Gal(b1-4)GlcNAc(b1-4)]Man(a1-3)[Gal(b1-4)GlcNAc(b1-2)Man(a1-6)]Man(b1-4)GlcNAc(b1-4)GlcNAc
# Outline: as §1
# [14] = target: Gal(b1-4)GlcNAc(b1-2)[Gal(b1-4)GlcNAc(b1-4)]Man(a1-3)[Gal(b1-4)GlcNAc(b1-2)[Gal(b1-4)GlcNAc(b1-6)]Man(a1-6)]Man(b1-4)GlcNAc(b1-4)GlcNAc
# Outline: as §1
# [15] = target: Gal(b1-4)GlcNAc(b1-2)[Gal(b1-4)GlcNAc(b1-4)]Man(a1-3)[GlcNAc(b1-4)][Gal(b1-4)GlcNAc(b1-2)Man(a1-6)]Man(b1-4)GlcNAc(b1-4)GlcNAc
# Outline: as §1
# [16] = target: Gal(b1-4)GlcNAc(b1-2)[Gal(b1-4)GlcNAc(b1-4)]Man(a1-3)[GlcNAc(b1-4)][Gal(b1-4)GlcNAc(b1-2)[Gal(b1-4)GlcNAc(b1-6)]Man(a1-6)]Man(b1-4)GlcNAc(b1-4)GlcNAc
# Outline: as §1
binder,measurement,setting,value
B1,glycan array binding signal (z-score),Gal(b1-4)Glc6S,-0.199
same,glycan array binding signal (z-score),Gal(b1-4)GlcNAc,-0.211
same,glycan array binding signal (z-score),[1],-0.184
same,glycan array binding signal (z-score),Gal(b1-4)GlcNAc(b1-2)Man,-0.209
same,glycan array binding signal (z-score),[2],-0.219
same,glycan array binding signal (z-score),[3],0.157
same,glycan array binding signal (z-score),[4],3.7
same,glycan array binding signal (z-score),[5],-0.251
same,glycan array binding signal (z-score),[6],-0.219
same,glycan array binding signal (z-score),[7],0.015
same,glycan array binding signal (z-score),[8],-0.228
same,glycan array binding signal (z-score),[9],-0.241
same,glycan array binding signal (z-score),[10],-0.22
same,glycan array binding signal (z-score),[11],0.021
same,glycan array binding signal (z-score),[12],-0.2
same,glycan array binding signal (z-score),[13],-0.193
same,glycan array binding signal (z-score),[14],-0.236
same,glycan array binding signal (z-score),[15],-0.245
same,glycan array binding signal (z-score),[16],-0.235
